Test results as given in PubChem BioAssay (NCATS).
The inconclusive results got no clear call from the source; some entries with a clear call stand among them for comparison. Potencies of inconclusive entries are doubtful fits and often do not repeat. Calls of active or inactive are those of the source. Calls follow the shape of the dose curve; as a rule, active = well fitted cell-killing curve with a large enough effect; inconclusive = small, poorly fitted or top-dose-only effect, or effect the other way; inactive = flat fitted curve, though single readings scatter.

test system: Hek293T; experiment: Primary qHTS to identify gynecologic anti-cancer compounds using libraries of approved drugs and bioactive compounds (AID 1345084); details: Gynecologic cancer cell panel viability, ATPlite luminescence, 48 h, control line for the selectivity index; series mostly up to 57.5 µM; also: nearly all actives have a fitted effect of over 55% in size
Procedure, shortened: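 In this quantitative HTS, cell killing is estimated from loss of ATP-dependent luciferase light. Cells see five compound concentrations over a 48 h exposure.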
Potency is read from the fitted curve at half-maximal effect; tags tell the direction and shape of the fitted curve.

Row | Compound | Potency
1 | C[C@@]1(C(=O)Nc2ccc(F)nc2)CCCN1c1nc(Nc2cc(C3CC3)[nH]n2)c2cccn2n1 | inconclusive: 3.55 µM [cytotoxic, full curve]
2 | CN(C)Cc1ccc(-c2nc3cccc4c3n2CCNC4=O)cc1 | inconclusive: 39.8 µM [cytotoxic, single point]
3 | CN(CCOc1ccc(CC2SC(=O)NC2=O)cc1)c1ccccn1 (stereo not drawn) | inactive
4 | Clc1ccccc1C(c1ccccc1)(c1ccccc1)n1ccnc1 | inconclusive: 39.8 µM [cytotoxic, single point]
5 | Cc1cc2c(cc1C1(c3ccc(C(=O)O)cn3)CC1)C(C)(C)CCC2(C)C | inconclusive: 39.8 µM [cytotoxic, single point]
6 | CC(C)NCC(O)COc1ccc(COCCOC(C)C)cc1 (stereo not drawn) | inactive
7 | COc1cc(N2CCC(N3CCN(C)CC3)CC2)ccc1Nc1ncc(Cl)c(Nc2ccccc2S(=O)(=O)C(C)C)n1 | inconclusive: 14.1 µM [cytotoxic, partial curve]
8 | CNC(=O)c1ccc2cc(C3(O)CCn4cncc43)ccc2c1 (stereo not drawn) | inactive
9 | CC(C)(C#N)c1cc(Cn2cncn2)cc(C(C)(C)C#N)c1 | inactive
10 | CCCCOc1ccc(C(=O)Nc2ccc(F)cc2F)cc1 | inconclusive: 39.8 µM [cytotoxic, partial curve, poor fit]
11 | CC(C)(C)NCC(O)c1ccc(O)c(CO)c1 (stereo not drawn) | inactive
12 | CCc1nc(N)nc(N)c1-c1ccc(Cl)cc1 | active: 7.94 µM
13 | CCOC(=O)C1=C[C@]2(CC)CCCN3CCc4c(n1c1ccccc41)[C@@H]32 | inactive
